PubChem BioAssay AID488969 (Vanderbilt High Throughput Screening Facility, 2010)
The full ranking holds about 110,000 compounds; the median of “z-score” is about -0.1, and the highest 2% start at about 2. This is one part of the list. Active and inactive are the calls of the source.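 The calls were made as follows: active = z-score in the third read window above 3 or below -3; inactive = the rest.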

Each molecule was assayed against Metabotropic glutamate receptor 8 (Rattus norvegicus) (UniProt P70579) (assay: mGluR8 Gi/Go-coupled signaling modulation – cell-based, rat, thallium flux, HTS, primary screen (AID 488969)). Conditions: HEK293 rat mGluR8, GIRK (G protein-gated inwardly rectifying potassium channel) thallium flux, FluoZin2; at 10 µM; stronger effect = higher value; submaximal glutamate (EC20) added with thallium.
UniProt P70579, sequence (P70579 whole entry, looked up): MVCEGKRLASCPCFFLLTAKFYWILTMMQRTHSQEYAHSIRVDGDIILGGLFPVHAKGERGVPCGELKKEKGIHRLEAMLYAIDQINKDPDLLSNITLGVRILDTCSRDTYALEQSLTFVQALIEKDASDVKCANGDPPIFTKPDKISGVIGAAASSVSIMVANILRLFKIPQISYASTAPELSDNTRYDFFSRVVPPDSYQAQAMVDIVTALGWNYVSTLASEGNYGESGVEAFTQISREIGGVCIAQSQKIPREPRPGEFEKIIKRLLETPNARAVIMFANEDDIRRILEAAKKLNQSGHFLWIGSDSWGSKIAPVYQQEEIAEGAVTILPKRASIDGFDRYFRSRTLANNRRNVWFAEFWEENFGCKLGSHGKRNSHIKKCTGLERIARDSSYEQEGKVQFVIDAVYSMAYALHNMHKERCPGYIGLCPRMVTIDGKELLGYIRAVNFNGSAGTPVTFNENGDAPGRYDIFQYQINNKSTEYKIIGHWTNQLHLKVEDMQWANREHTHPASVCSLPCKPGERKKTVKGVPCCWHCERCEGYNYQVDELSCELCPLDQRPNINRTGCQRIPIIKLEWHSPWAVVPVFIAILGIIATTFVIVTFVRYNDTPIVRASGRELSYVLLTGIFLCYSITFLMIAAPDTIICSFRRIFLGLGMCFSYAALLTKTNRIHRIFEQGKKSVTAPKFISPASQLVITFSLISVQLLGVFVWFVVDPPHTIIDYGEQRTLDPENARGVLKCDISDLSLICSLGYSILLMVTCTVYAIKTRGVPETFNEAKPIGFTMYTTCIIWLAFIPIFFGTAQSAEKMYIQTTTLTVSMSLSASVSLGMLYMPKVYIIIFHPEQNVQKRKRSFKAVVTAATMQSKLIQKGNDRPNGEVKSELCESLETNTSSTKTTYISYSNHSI

| SMILES | z-score |
| --- | --- |
| CC(O)CN=c1cc(-c2ccccc2)oc2ccc(Cl)cc12 (centres undefined) | -0.64 |
| S=C(NCc1cccs1)Nc1ccc(Cl)cc1 | 0.118 |
| CC(C)CCC(CC(C)O)c1n[nH]c(=S)n1-c1ccccc1 (centres undefined) | -0.206 |
| CCOC(=O)c1c(CN(C)C)n(-c2ccc(C)cc2)c2cc(Br)c(O)cc12 | 0.129 |
| CCN1C(=O)/C(=c2/s/c(=C3\SC(C)=C(C)N3CC)c(=O)n2CC)N(c2ccccc2)C1=S | -0.708 |
| CC(=O)Nc1ccc(NC(=O)Cc2sc(C)nc2-c2ccc(C)cc2)cc1 | -0.345 |
| O=C(OC(C(=O)NC1CCCC1)c1ccncc1)C1=Cc2ccccc2OC1 (centres undefined) | -1.18 |
| N#Cc1cc(-c2ccccc2)nnc1Sc1ccc(Cl)cc1 | -0.0665 |
| FC(F)C(F)(F)C1=CC(c2ccccc2)=NCCN1 | -0.165 |
| CCNC(=O)Cc1ccc(NS(=O)(=O)c2ccc(F)cc2)cc1 | 0.904 |
| CC(C)OCCCNC(=O)c1ccc(CS(=O)(=O)Cc2ccccc2F)o1 | -0.084 |
| COc1ccc(C2(NC(C)=O)CCN(C(=O)c3cccs3)CC2)cc1 | -0.223 |
| CC1CC(C)CN(c2cc3c(cc2[N+](=O)[O-])C(=O)N(c2ccccc2)C3=O)C1 (centres undefined) | -0.0335 |
| O=C1CC(c2cccc(Cl)c2)CC(O)=C1C=NCCCO (centres undefined) | 0.0972 |
| CC(=O)Nc1cc2c(cc1Br)OCCO2 | -0.0593 |
| C/C(=C\C(=O)N1CCc2ccccc21)C(=O)O | -0.494 |
| CCOCC(=O)Nc1nc(-c2ccccc2)c(CC)s1 | -0.107 |
| CCC(C)NC(=O)/C(=C/c1ccco1)c1ccccc1 (centres undefined) | -0.109 |
| COc1ccc(-c2nnc3ccc(SCC(=O)Nc4nc5ccccc5s4)nn23)cc1OC | -0.256 |
| COC(=O)c1ccc(CSc2nnc(SCc3ccc(C(=O)OC)o3)s2)o1 | -0.48 |
| COc1ccc(C(c2nnnn2CS(=O)(=O)c2ccc(C)cc2)N2CCN(c3ncccn3)CC2)cc1 (centres undefined) | -0.362 |
| Cc1ccc(CNCC2CCCO2)o1 (centres undefined) | -0.19 |

| SMILES | z-score |
| --- | --- |
| NC(=O)c1ccc(-n2nnnc2SCC(=O)Nc2ccccc2-c2ccccc2)cc1 | -1.03 |
| CC(CCc1ccccc1)NC(=O)Cc1ccccc1 (centres undefined) | -0.167 |
| C=CCN(CC=C)C(=O)c1ccncc1 | 0.191 |
| N/C(CN1CCCC1=O)=N\OC(=O)c1ccccc1Cl | -0.018 |
| Cc1cc(C)nc(Nc2n[nH]c(-c3cccc4ccccc34)n2)n1 | -0.403 |
| CCOc1ccc(-c2nc(C#N)c(NCC(C)C)o2)cc1 | -0.318 |
| O=S(=O)(c1cnccc1N1CCN(/N=C/c2ccc(Br)cc2)CC1)N1CCCCC1 | -0.157 |
| CSc1nc2c(c(-c3ccccc3)c1C#N)CCC2 | -0.891 |
| CCN(C1CCCCC1)S(=O)(=O)c1ccc(S(=O)(=O)N2CCN(CCC#N)CC2)cc1 | -0.359 |
| CN1CCN(CCC(=O)N/N=C/c2cc([N+](=O)[O-])ccc2O)CC1 | -0.0062 |
| O=C(COc1ccccc1)Nc1cccc(-c2nc3cc4ccccc4cc3[nH]2)c1 | -0.401 |
| COc1cccc(N2CCN(CC(=O)c3c(C)[nH]c4ccccc34)CC2)c1 | -0.161 |
| O=C(Nc1ccc2oc(-c3ccccc3Cl)nc2c1)c1ncn[nH]1 | -0.735 |
| C=CCn1c(CNC(=O)c2ccco2)nnc1SCC(=O)N1c2ccccc2Sc2ccccc21 | -0.413 |
| CN(C)c1ccc(-c2ccccc2)nn1 | -0.328 |
| CC(C)CCN1CN(S(=O)(=O)c2cccs2)c2nc3ccccc3nc21 | -0.0647 |
| CCCn1c(SCC(=O)N2CC(=O)Nc3ccccc32)nc2ccccc21 | 0.257 |
| N#Cc1cccc(-n2nnnc2-c2ccccn2)c1 | 1.09 |
| CC(C)c1ccccc1NC(=S)NN(Cc1ccccc1)c1ccccc1 | -0.164 |
| CC(=O)/C(=C/c1ccc(N(C)C)cc1)C(=O)c1ccccc1 | -0.00758 |
| COc1cc(C2C(C(C)=O)=C(O)C(=O)N2CCN(C)C)ccc1O (centres undefined) | 0.309 |
| O=C(COc1cccnc1[N+](=O)[O-])NC1CCS(=O)(=O)C1 (centres undefined) | -0.147 |

| SMILES | z-score |
| --- | --- |
| Cc1ccccc1NC(=O)Cc1nc(CSc2nnc(-c3ccc4c(c3)OCO4)o2)cs1 | 0.189 |
| COC(=O)c1[nH]c2cc(OC)ccc2c1NC(=O)CCN1CCCCC1 | 0.109 |
| Cc1ccc(-n2c(SCC(=O)Nc3ccc(N4CCOCC4)cc3)nc3ccccc3c2=O)cc1 | -0.0731 |
| Cc1ccc(C(=O)NNC(=O)c2cc(OCC(F)(F)F)ccc2OCC(F)(F)F)cc1 | 0.0812 |
| CC(C)C(NS(=O)(=O)c1cccc2nsnc12)C(=O)Nc1nc2ccc(Cl)cc2s1 (centres undefined) | 0.14 |
| COCCn1c(SCc2nc3scc(-c4ccc(Cl)cc4)c3c(=O)[nH]2)nnc1-c1cccc(C)c1 | -0.856 |
| C/C(O)=C(/C#N)c1nc2ccccc2[nH]1 | 0.165 |
| Clc1ccccc1-c1nc2ccccc2c2nc3ccccc3n12 | -0.316 |
| CCCCCCOC(=O)C(C#N)c1nc2ccccc2nc1N1CCN(CC)CC1 (centres undefined) | 0.709 |
| Cc1onc(-c2c(Cl)cccc2Cl)c1C(=O)n1nnc2ccccc21 | -0.18 |
| Cc1nc2ncnn2c(C)c1CCC(=O)N1CC(C)CC(C)C1 (centres undefined) | -0.0973 |
| CC(C)(C)NC(=O)CCC1COc2ccccc2O1 (centres undefined) | -0.00979 |
| CCCCN(C)C(=O)CCC(=O)NNc1nc2ccccc2c2nc(C)nn12 | -0.0531 |
| COc1ccc(NC(=S)Nc2ccc(OCc3ccccc3)cc2)cc1OC | 0.114 |
| O=C(Nc1ccc2c(c1)OCO2)NC1(C(F)(F)F)Oc2ccccc2O1 | 0.348 |
| O=C(CN1CCN(C(=S)NC2CCCC2)CC1)Nc1ccc(Oc2ccccc2)cc1 | -0.13 |
| O=c1[nH]c(CSc2nc(-c3ccccc3)cs2)nc2ccccc12 | -0.182 |
| COc1ccc(N/N=C(/N=Nc2nc(C)cc(=O)[nH]2)c2ccccc2)cc1 | -0.072 |
| O=S(c1ccsc1)c1ccsc1 | -0.939 |
| CCn1c(SCc2ccc(Cl)cc2)nc2nc3c(cc2c1=O)CCCC3 | 0.193 |
| CC(C)Cc1ccc(S(=O)(=O)N2CCN(C(=O)c3ccco3)CC2)cc1 | -0.0515 |
| COC(=O)c1cc(-c2ccccc2)sc1N | -0.00329 |

| SMILES | z-score |
| --- | --- |
| COC(=O)c1ccc(N2C(=O)CC(Sc3n[nH]c(C)n3)C2=O)cc1 (centres undefined) | active: 4.88 |
| O=C1CCCN1c1cccc(Br)c1 | 1.48 |
| COc1ccc(-c2c(N)nnc3c2[nH]c2ccccc23)cc1OC | 0.093 |
| O=C1N=C(N2CCN(c3ccccc3)CC2)SC1Cc1ccccc1 (centres undefined) | -0.845 |
| Cc1cc(C)c(S(=O)(=O)NCCCN2CCOCC2)cc1Br | -0.0584 |
| Cc1nn(Cc2c(Cl)cccc2Cl)c(C)c1NC(=O)c1sc2ccccc2c1Cl | -0.0715 |
| Cc1cc(=O)[nH]c(N2CCc3ccccc3C2)n1 | -0.185 |
| Cc1ccc(NC(=O)c2cc(NC(=O)C3CC=CCC3C(=O)O)ccc2N2CCOCC2)cc1Cl (centres undefined) | 0.251 |
| CCONC(=O)Nc1ccccc1[N+](=O)[O-] | -0.32 |
| CCN(CC)c1ccc(/C=C2\C(=O)N(c3ccc([N+](=O)[O-])cc3)N=C2N2CCOCC2)cc1 | -0.155 |
| CC1CCCN(c2nc3c(c(=O)[nH]c(=O)n3C)n2CCSc2nc3ccccc3o2)C1 (centres undefined) | -0.549 |
| ClC(=C\c1ccccc1)/C=N/N1CCN(c2ccccn2)CC1 | -0.0893 |
| O=c1c2[nH]c3ccccc3c2ncn1Cc1ccco1 | -0.0473 |
| Nc1c(S(=O)(=O)c2cccc(Cl)c2)c2nc3ccccc3nc2n1/N=C/c1ccc(O)c(O)c1 | 0.831 |
| COc1cc2c(C(=O)N3CCN(c4ccccc4C)CC3)c(C)oc2cc1Br | -0.461 |
| COC(=O)c1cc(NS(=O)(=O)c2ccc(N3CCC(C)CC3)c([N+](=O)[O-])c2)cc(C(=O)OC)c1 | -0.235 |
| O=C(Nc1cccn(Cc2c(Cl)cccc2Cl)c1=O)c1ccc(Cl)cc1 | 0.349 |
| CCn1c(=O)cc(OCC(=O)N2CCCCCC2)c2ccccc21 | -0.224 |
| Cc1ccccc1C(=O)N1CCC(C(=O)Nc2ccc(S(=O)(=O)N(C)C(C)C)cc2)CC1 | -0.824 |
| Cc1cc(C(F)(F)F)nn1CC(=O)NNC(=S)Nc1ccc(Cl)cc1 | 0.0912 |
| CCOC(=O)C(NCCc1ccc(F)cc1)(NC(=O)CC)C(F)(F)F (centres undefined) | -0.413 |
| CC12CCC(O)CC1=CCC1C2CCC2(C)C1CCC21CCC(=O)O1 (centres undefined) | 0.184 |

| SMILES | z-score |
| --- | --- |
| COc1cc(NC(=O)CCC(=O)O)nc(OC)n1 | -0.0824 |
| Cc1ccc2c(c1)NC(=O)C(CC(=O)N(C)Cc1ccccc1)O2 (centres undefined) | -0.422 |
| Oc1ccc(Br)cc1-c1nc2cnccn2c1NC1CCCCC1 | -0.22 |
| O=C(Cc1ccccc1)N/N=C/c1ccc(-c2ccc([N+](=O)[O-])cc2)o1 | -0.441 |
| N#C/C(=C/c1cccc([N+](=O)[O-])c1)c1nnc2n1CCCCC2 | -0.295 |
| COc1ccc(NC(=O)c2ccc(C#CC(C)(C)O)cc2)cc1 | -0.245 |
| O=[N+]([O-])C1=CC=C2C(=NC3(CCCCC3)N2O)C1=NC1CCCCC1 | 0.018 |
| COc1cccc(NC(=O)N(CCCN2CCOCC2)C(C)c2cc3ccccc3o2)c1 (centres undefined) | -2.21 |
| CCOC(=O)C1=C(c2ccccc2)OC(N)=C(C#N)C1c1cccs1 (centres undefined) | 0.288 |
| COc1ccc(C(=O)Nc2cc3c(cc2C#N)OCO3)cc1S(=O)(=O)N1CCN(C)CC1 | 1.02 |
| COc1ccc(Cc2nc3ccccc3n2CC(=O)N/N=C/c2ccc(C)cc2O)cc1OC | -0.275 |
| CCCS(=O)(=O)N1CCC(C(=O)NC2CCCC(C)C2C)CC1 (centres undefined) | 0.495 |
| CCn1c(SCc2nc3ccccc3[nH]2)nnc1-c1ccc(OC)cc1 | -0.231 |
| COc1ccccc1C(c1nnnn1CCc1ccccc1)N1CCCCCC1 (centres undefined) | 2.68 |
| Cc1nn(C)c(C)c1CNC(=O)c1nn2c(c1Cl)NC(c1cccs1)CC2C(F)(F)F (centres undefined) | -0.0188 |
| CCCC(=O)Nc1sc2c(c1C#N)CCCCC2 | 0.209 |
| CCCCNC(=O)C1C2C=CC3(CN(Cc4ccccc4Cl)C(=O)C13)O2 (centres undefined) | 1.61 |
| COc1ccc(S(=O)(=O)Nc2ccc(S(=O)(=O)N3CCOCC3)cc2)cc1C | -0.769 |
| Cc1c(S(=O)(=O)N2CCc3ccccc3C2)c(=O)n(C)c(=O)n1C | -0.104 |
| CCN(CC)CCn1nc(C)nc1-c1ccccc1O | -0.149 |
| COc1ccc(C(=O)c2c(C)c3cc(C)ccc3n2CC(O)CN2CCOCC2)cc1 (centres undefined) | -0.197 |
